Source: publication PMC4336329 (PLoS ONE, 2015)
Screen size: about 310,000 compounds; about 14,000 (4.5%) showed an effect of 50% or more. The effect is printed as a negative number. The list shows a part of the results.

Biological target: human ether-à-go-go-related gene (hERG) potassium channel (human, UniProt Q12809)
Assay: primary screen, population patch clamp on CHO cells stably expressing hERG
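Further: peak tail current of the secondary pulse compared with the same well before compound.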

Chain of human ether-à-go-go-related gene (hERG) potassium channel (Q12809 whole entry, looked up): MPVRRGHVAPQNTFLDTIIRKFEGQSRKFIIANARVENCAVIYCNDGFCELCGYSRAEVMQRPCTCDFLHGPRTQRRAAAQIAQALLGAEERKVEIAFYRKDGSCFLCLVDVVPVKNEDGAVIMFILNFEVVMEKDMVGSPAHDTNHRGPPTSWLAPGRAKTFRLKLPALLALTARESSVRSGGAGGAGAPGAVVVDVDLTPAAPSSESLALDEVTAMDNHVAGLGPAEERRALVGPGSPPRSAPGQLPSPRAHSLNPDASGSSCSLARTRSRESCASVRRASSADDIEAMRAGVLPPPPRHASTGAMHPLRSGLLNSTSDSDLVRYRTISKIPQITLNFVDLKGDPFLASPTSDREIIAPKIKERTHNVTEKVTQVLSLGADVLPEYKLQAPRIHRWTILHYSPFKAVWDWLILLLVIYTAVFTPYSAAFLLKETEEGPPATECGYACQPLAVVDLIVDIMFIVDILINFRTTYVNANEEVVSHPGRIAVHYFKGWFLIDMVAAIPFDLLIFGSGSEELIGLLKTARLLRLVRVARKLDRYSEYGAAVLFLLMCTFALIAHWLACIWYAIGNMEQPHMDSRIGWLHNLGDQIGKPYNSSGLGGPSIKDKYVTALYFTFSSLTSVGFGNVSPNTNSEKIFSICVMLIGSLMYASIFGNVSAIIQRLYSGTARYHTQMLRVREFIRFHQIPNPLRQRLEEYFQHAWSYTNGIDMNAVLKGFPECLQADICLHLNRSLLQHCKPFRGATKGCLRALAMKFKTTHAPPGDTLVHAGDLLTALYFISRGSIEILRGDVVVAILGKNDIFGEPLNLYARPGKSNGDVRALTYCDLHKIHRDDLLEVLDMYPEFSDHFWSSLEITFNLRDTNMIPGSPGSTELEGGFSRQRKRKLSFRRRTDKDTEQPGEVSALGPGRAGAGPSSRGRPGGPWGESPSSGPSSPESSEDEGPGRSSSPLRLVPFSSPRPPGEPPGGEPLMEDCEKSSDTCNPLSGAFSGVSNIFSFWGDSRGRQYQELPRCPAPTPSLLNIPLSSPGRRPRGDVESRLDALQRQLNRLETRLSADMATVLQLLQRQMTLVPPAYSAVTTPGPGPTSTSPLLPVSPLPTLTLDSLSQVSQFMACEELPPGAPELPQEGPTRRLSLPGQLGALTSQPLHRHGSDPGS

Going from `CC(=O)N1CCN(S(=O)(=O)c2ccc(S(=O)(=O)NCC(C)C)cc2)CC1.O=C(O)C(=O)O` to `CCn1cc(C(=O)N2CCN(c3ccc(OC)cc3)CC2)c(=O)c2cc(S(=O)(=O)N3CCOCC3)ccc21`, the “hERG current change (%, negative = inhibition) at 10uM” value falls from -4.06% to -25.4%.

Compared with `Cl.Oc1ccc(Cl)cc1CNCc1ccc(F)cc1`, `OCCc1ccc(O)c(-n2nc3ccccc3n2)c1` is lower in “hERG current change (%, negative = inhibition) at 10uM” value: -12.9% for the first, -17.1% for the second.

Compared with `C=CCSC1=C(C#N)C(c2ccccc2)CC(=O)N1` (stereo not drawn), `COC(=O)CSc1cccc2c1C(=O)CC2c1ccccc1` (stereo not drawn) is lower in “hERG current change (%, negative = inhibition) at 10uM” value: -8.2% for the first, -21% for the second.

First: CCCCOc1ccc(C(=O)N2CCNC(=O)C2CC(=O)OC(C)C)cc1 (stereo not drawn)
Second: CCCCCOc1ccc(C(=O)CCN2CCOCC2)cc1.Cl
The “hERG current change (%, negative = inhibition) at 10uM” value of the first is higher: 13.1% for the first, -2.54% for the second.

Compared with `COc1nc(N2CCOCC2)nc(-n2cccc2)n1`, `CC(Oc1ccc([N+](=O)[O-])cc1)C(=O)NCCCN1CCOCC1` (stereo not drawn) is lower in “hERG current change (%, negative = inhibition) at 10uM” value: -4.33% for the first, -16.8% for the second.

First: CCn1c(O)c(C=NCc2ccccc2)c(=O)[nH]c1=S
Second: O=C(CSCc1ccccc1)N=Nc1c(O)[nH]c2ccccc12
The “hERG current change (%, negative = inhibition) at 10uM” value of the first is higher: 24.1% for the first, -19.1% for the second.

Going from `CCOC(=O)C(NCc1ccccc1OC)(NC(=O)c1ccccc1)C(F)(F)F` (stereo not drawn) to `COc1ccc(C(=O)CC(=O)C(=O)Nc2ccccc2C(F)(F)F)cc1`, the “hERG current change (%, negative = inhibition) at 10uM” value rises from 2.04% to 6.25%.

First: CC(=O)Nc1ccc(Oc2ccc3nc(C)[nH]c3c2)cc1
Second: Cc1noc(NS(=O)(=O)c2ccc(NC(=O)c3ccc(OC(C)C)cc3)cc2)c1C
The “hERG current change (%, negative = inhibition) at 10uM” value of the first is higher: 21.7% for the first, 15.4% for the second.

Compared with `COc1ccc(CCNC(=O)CCC2COc3ccccc3O2)cc1OC` (stereo not drawn), `CCOCCCNC(=O)Cc1ccc(OC)c(OC)c1` is higher in “hERG current change (%, negative = inhibition) at 10uM” value: 0.425% for the first, 14.1% for the second.

Compared with `O=C(COC(=O)C1CCN(S(=O)(=O)c2ccc3c(c2)OCCO3)CC1)Nc1ccccc1OC(F)F`, `CCOc1ccccc1N1CC(C(=O)Nc2ccc3c(c2)OCCO3)CC1=O` (stereo not drawn) is lower in “hERG current change (%, negative = inhibition) at 10uM” value: 11.3% for the first, 11.2% for the second.

Going from `O=C(N/N=C/c1[nH]c2ccccc2c1Cl)c1cccc(Br)c1` to `O=C(Nc1ccccc1C(=O)O)c1cccc(NC(=O)c2ccc(Br)o2)c1`, the “hERG current change (%, negative = inhibition) at 10uM” value falls from 13.7% to 7.57%.

Going from `CN(C(=O)C1CCC(=O)N(Cc2ccccc2F)C1)C1CCOCC1` (stereo not drawn) to `CCN1CCN(C(=O)C2CCC(=O)N(Cc3cccc(C(F)(F)F)c3)C2)CC1` (stereo not drawn), the “hERG current change (%, negative = inhibition) at 10uM” value rises from 10.2% to 14%.

Compared with `CNC(=O)/C(C#N)=C/c1c(F)cccc1Cl`, `C/C(=N/NS(=O)(=O)c1ccc(Cl)cc1)c1cccc(O)c1` is lower in “hERG current change (%, negative = inhibition) at 10uM” value: 11.8% for the first, -2.62% for the second.

Compared with `Oc1ccc2ccccc2c1Br`, `O=C(O)c1cc2ccccc2c(N=Nc2cccnc2)c1O` is lower in “hERG current change (%, negative = inhibition) at 10uM” value: 9.16% for the first, 6.49% for the second.

First: COc1ccc(C(=O)n2cnnc2N)cc1
Second: COc1ccc(-c2cc(=O)n(CCC#N)[nH]2)cc1
The “hERG current change (%, negative = inhibition) at 10uM” value of the first is lower: 0.371% for the first, 25.3% for the second.

Going from `COc1cc(NC(=O)c2cc(C(C)C)on2)c(OC)cc1Cl` to `COc1ccc(NC(=O)COC(=O)c2ccc(OCc3c(C)noc3C)cc2)cc1OC`, the “hERG current change (%, negative = inhibition) at 10uM” value rises from 3.16% to 10%.

Going from `O=C(NCC(=O)N(Cc1cccs1)C(C(=O)NC1CCCCC1)c1cccnc1)c1ccco1` (stereo not drawn) to `COCCNC(=O)C(c1ccc(O)cc1)N(C(=O)CCC(=O)Nc1nccs1)c1ccc(C)cc1` (stereo not drawn), the “hERG current change (%, negative = inhibition) at 10uM” value falls from 5.48% to 1.69%.

First: Nc1cccc(C(=O)Nc2ccc(N)cc2Cl)c1
Second: CCOc1cc(NC(=S)NC)c(OCC)cc1NC(=O)c1ccc(OC)cc1
The “hERG current change (%, negative = inhibition) at 10uM” value of the first is higher: 4.49% for the first, -1.61% for the second.

Going from `Cc1cccc(NC(=O)C2CCCN2C(=O)NC2CCCCC2)c1` (stereo not drawn) to `O=C1CCc2cc(S(=O)(=O)N3CCC(C(=O)NC4CCCC4)CC3)ccc2N1`, the “hERG current change (%, negative = inhibition) at 10uM” value falls from 27.8% to -4.68%.

Compared with `O=c1[nH]c2cc3c(cc2cc1CN(Cc1cccs1)Cc1nnnn1Cc1ccco1)OCCO3`, `CCOc1ccc2[nH]c(=O)c(CN(Cc3ccc(F)cc3)C(=O)c3ccco3)cc2c1` is lower in “hERG current change (%, negative = inhibition) at 10uM” value: -26.7% for the first, -31.8% for the second.

Compared with `CC(N)C12CC3CC(C1)CC(C(C)N)(C3)C2.Cl` (stereo not drawn), `COC(=O)C1CCN(C(=O)[C@H](C)NC(=O)C2CC(=O)N(c3ccc(F)cc3)C2)CC1` (stereo partly drawn) is higher in “hERG current change (%, negative = inhibition) at 10uM” value: 4.42% for the first, 10.7% for the second.

First: O=C(O)CSc1c(-c2ccccc2)[nH]c2ccccc12
Second: O=C(CC(Sc1n[nH]c(-c2ccccc2)n1)c1ccccc1)NCc1ccccc1 (stereo not drawn)
The “hERG current change (%, negative = inhibition) at 10uM” value of the first is higher: 17.8% for the first, -16% for the second.

First: Cc1onc(-c2c(Cl)cccc2Cl)c1C(=O)N[C@@H]1C(=O)N2[C@@H]1SC(C)(C)[C@@H]2C(=O)[O-].O.[Na+]
Second: CC(=O)NN1C(=O)/C(=C2/Sc3ccc(Cl)cc3N2C)SC1=S
The “hERG current change (%, negative = inhibition) at 10uM” value of the first is higher: 13.1% for the first, 10.6% for the second.

First: CS(=O)(=O)c1cccc(C(=O)NC(c2ccccc2)c2ccccc2)c1
Second: CS(=O)(=O)c1nc(-c2ccccc2)cc(-c2ccccc2)c1C#N
The “hERG current change (%, negative = inhibition) at 10uM” value of the first is lower: -28% for the first, 8.33% for the second.

First: CCOC(=O)C1=CC[C@@H](c2ccco2)N(S(=O)(=O)c2ccc(C)cc2)[C@H]1C(=O)OCC
Second: CCN(c1ccc(NC(=O)COC(=O)c2ccc3ccccc3n2)cc1)C(C)C
The “hERG current change (%, negative = inhibition) at 10uM” value of the first is lower: -17.8% for the first, 3.98% for the second.

Going from `COC(=O)c1ccc(NC2c3ncccc3C(=O)N2Cc2cccs2)cc1` (stereo not drawn) to `Cc1ccc(C(=O)N2CCN(c3cc(=O)[nH]nc3-c3ccccc3)CC2)cc1`, the “hERG current change (%, negative = inhibition) at 10uM” value falls from -41% to -41.7%.

Going from `O=C(O)/C=C/c1ccc(S(=O)(=O)Nc2ccccc2C(=O)Nc2ccc(F)cc2)cc1` to `COc1ccccc1NS(=O)(=O)c1cc(NC(=O)CCc2nc3ccccc3c(=O)[nH]2)ccc1C`, the “hERG current change (%, negative = inhibition) at 10uM” value falls from 19.2% to -24.9%.

Going from `CCN(CC(=O)Nc1ccc2c(c1)OCCO2)C(=O)COc1ccc(C)cc1` to `Cc1ccc(OCCNC(=O)Cc2ccc(S(=O)(=O)N3CCOCC3)s2)cc1`, the “hERG current change (%, negative = inhibition) at 10uM” value falls from -9.49% to -24%.

Going from `CSc1nc(C)c(C(=O)C[n+]2ccccc2C)cc1C#N.[Br-]` to `Cc1cc(SCC(=O)N/N=C/c2cccnc2)nc2c(C)cccc12`, the “hERG current change (%, negative = inhibition) at 10uM” value rises from -23.4% to 12%.

Going from `C[C@@H](C(=O)NCc1c(F)cccc1Cl)N1C(=O)N2CCc3c([nH]c4ccccc34)[C@@]2(C)C1=O` to `CCCCN(C(=O)c1cc(Cl)nc2ccccc12)c1c(N)n(CCCC)c(=O)[nH]c1=O`, the “hERG current change (%, negative = inhibition) at 10uM” value rises from -10.8% to 3.26%.

Compared with `COc1ccccc1NC(=O)C(=N\O)/C(C)=N/O`, `COc1ccc(CC(CC(=O)O)C(=O)NCc2ccccc2)cc1` (stereo not drawn) is higher in “hERG current change (%, negative = inhibition) at 10uM” value: 5.64% for the first, 61.1% for the second.

Compared with `O=c1[nH][nH]c(=O)c2cc([N+](=O)[O-])ccc12`, `COc1ccc2[nH]c3c(c2c1)CCN[C@H]3C` is lower in “hERG current change (%, negative = inhibition) at 10uM” value: 25.2% for the first, -3.82% for the second.

First: CC1(OC(=O)C2CCCC2)C(=O)C=C2C=C3CCCN3C=C2C1=O (stereo not drawn)
Second: CC12C(=O)N(c3ccccc3C(=O)O)C(=O)C1C1C=CC2C1 (stereo not drawn)
The “hERG current change (%, negative = inhibition) at 10uM” value of the first is lower: -3.77% for the first, 16.7% for the second.

First: Cc1ccccc1Cn1cc(NC(=O)c2cc(C3CC3)on2)cn1
Second: Cc1ccccc1-c1nc(CN2CCCC(C(=O)NCc3cccnc3)C2)c(C)o1 (stereo not drawn)
The “hERG current change (%, negative = inhibition) at 10uM” value of the first is higher: -2.87% for the first, -64% for the second.

Going from `COCCOCCOCCC(=O)NC1CC2CCC1(C)C2(C)C` (stereo not drawn) to `CN1CCN(C(=O)C2=C[C@H](c3ccc(C(F)(F)F)cc3)C[C@H](OCCCCO)O2)CC1`, the “hERG current change (%, negative = inhibition) at 10uM” value falls from 0.486% to -18.2%.

Compared with `CCOC(=O)c1c(-c2ccc(OC)cc2)csc1NC(=O)CSc1nnc(C)c(=O)[nH]1`, `COC(=O)/C=C1\N/C(=N\c2nc(C)cc(C)n2)N(c2ccccc2)C1=O` is lower in “hERG current change (%, negative = inhibition) at 10uM” value: 16.1% for the first, 15.6% for the second.

Compared with `COc1cccc(-c2cc(C(F)(F)F)nc(-n3cc(Cl)cn3)n2)c1`, `COc1ccc2c(c1)C(=O)c1ccccc1CO2` is higher in “hERG current change (%, negative = inhibition) at 10uM” value: -6.19% for the first, -0.833% for the second.

Compared with `CCc1nnc(NC(=O)CN2CCN(C3CCCCC3)CC2)s1.O=C(O)C(=O)O`, `COc1ccc2[nH]c(=O)c(C(c3nnnn3C3CCCCC3)N3CCN(C)CC3)cc2c1` (stereo not drawn) is lower in “hERG current change (%, negative = inhibition) at 10uM” value: -11.4% for the first, -21.2% for the second.

First: CC(=NCCCN1CCOCC1)c1c(O)[nH]c(=O)[nH]c1=O
Second: CC(=NCC1CCCO1)c1c(O)n(-c2ccccc2C)c(=O)[nH]c1=O (stereo not drawn)
The “hERG current change (%, negative = inhibition) at 10uM” value of the first is higher: -2.27% for the first, -6.51% for the second.

Compared with `CCCCNC(=O)c1onc(CSc2ccc(F)c(F)c2)c1C(=O)O`, `CC(=O)Nc1sc(N/N=C/c2ccccc2F)nc1-c1ccc(C)cc1` is lower in “hERG current change (%, negative = inhibition) at 10uM” value: 0.742% for the first, -1.61% for the second.

Going from `CC1(C)CC(=O)C2=C(C1)N(c1ccc(F)cc1)C(=O)C2(O)C(F)(F)F` (stereo not drawn) to `Cc1ccc(CC(=O)N2CCN(c3ccc([N+](=O)[O-])cc3)CC2)cc1`, the “hERG current change (%, negative = inhibition) at 10uM” value falls from -15.2% to -62.1%.

First: O=[N+]([O-])c1cnc(N2CCCCC2)c([N+](=O)[O-])c1
Second: CCc1ccc(S(=O)(=O)c2nnn3c2nc(NCCNC(C)=O)c2ccccc23)cc1
The “hERG current change (%, negative = inhibition) at 10uM” value of the first is lower: 4.26% for the first, 8.28% for the second.

First: Clc1cc(Cl)c(OCc2nc(-c3ccccn3)no2)cc1Cl
Second: CCCCn1c(/C=C/c2ccco2)nc2ccccc21
The “hERG current change (%, negative = inhibition) at 10uM” value of the first is higher: -1.18% for the first, -17.2% for the second.

For `Cc1ccc(/C=N/NC(=O)c2ccco2)s1`, the “hERG current change (%, negative = inhibition) at 10uM” value was -2.98%.
